{"source": "PubChem BioAssay AID686970", "about": "(National Center for Advancing Translational Sciences (NCATS), 2013)", "note": "In all, about 360,000 compounds went through this assay and about 6,000 (1.7%) were called active. The inconclusive results got no clear call from the source; some entries with a clear call stand among them for comparison. Calls follow the shape of the dose curve; as a rule, active = well fitted cell-killing curve with a large enough effect; inconclusive = small, poorly fitted or top-dose-only effect, or effect the other way; inactive = flat fitted curve, though single readings scatter. No potency is given beside an inconclusive call; the fits are too rough. Potency is read from the fitted curve at half-maximal effect; tags tell the direction and shape of the fitted curve.", "data": [{"test": "qHTS for induction of synthetic lethality in tumor cells producing 2HG: qHTS for the HT-1080-NT fibrosarcoma cell line;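 also: NT is the 2HG producing partner of a matched IDH1 knockdown line; nearly all actives have a fitted effect of over 55% in size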;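 as to activity, negative = less viability: 0% = DMSO-treated cells and -100% = media-only wells without cells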", "conditions": "HT-1080-NT fibrosarcoma viability, CellTiter-Glo ATP luminescence, 48 h; activity, negative = less viability: at 46.1 µM (top of the series) unless noted", "summary_of_the_method": "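Fibrosarcoma NT cells, 750 per well in 5% FBS RPMI, were exposed to compound for 48 hours. Viability: CellTiter-Glo luminescence.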", "values": [{"molecule": "CC(C)OC(=O)NCCOC(=O)Nc1ccc(Cl)cc1", "Potency": "inactive"}, {"molecule": "CCOC1=C2[C@H](c3ccccc3)N(S(=O)(=O)c3ccc(C)cc3)C[C@H]2n2c(=O)n(-c3ccccc3)c(=O)n2C1", "Potency": "inconclusive [rising, single point]"}, {"molecule": "Cc1ccnc2c1ccc1cccnc12", "Potency": "inconclusive [cytotoxic, full curve, poor fit]"}, {"molecule": "BrC(=C\\c1ccccc1)/C=N/n1cnnc1", "Potency": "active: 16.4 µM"}, {"molecule": "Cc1cc(NC(=O)c2ccc(Br)o2)ccc1NC(=O)c1ccco1", "Potency": "inconclusive [cytotoxic, partial curve]"}, {"molecule": "Cc1cc(C)nc(SCc2ccc(C(=O)NNC(=O)Nc3cccc(Cl)c3)cc2)n1", "Potency": "inconclusive [cytotoxic, single point]"}, {"molecule": "CCCCSc1ccc2nc(-c3ccc(C#N)cc3)cn2c1", "Potency": "inactive"}, {"molecule": "CCc1nnc(NC(=O)c2oc3cc(C)c(C)cc3c2C)s1", "Potency": "inconclusive [rising, partial curve, poor fit]"}, {"molecule": "Nc1c2c(nc3ccn(Cc4ccccc4)c(=O)c13)CCC2", "Potency": "inconclusive [cytotoxic, partial curve]"}, {"molecule": "COCCNC(=O)CCSc1nc(-c2ccc(OC)cc2)cc(C(F)(F)F)n1", "activity, negative = less viability": "inconclusive: 34.5%"}, {"molecule": "CC(=O)c1ccc(Nc2nc(C(N)Cc3ccc(Cl)cc3)cs2)cc1", "note": "(configuration not stated)", "Potency": "active: 23.1 µM"}, {"molecule": "COc1ccc(-n2sc3c(c2=S)-c2cc(OC)ccc2NC3(C)C)cc1", "Potency": "inconclusive [cytotoxic, single point]"}, {"molecule": "CC(CCN1CCC(n2nccc2NC(=O)c2ccccc2Cl)CC1)c1ccccc1", "note": "(configuration not stated)", "Potency": "inactive"}, {"molecule": "COc1ccccc1Cc1c(-c2ccco2)nc2c3ccccc3ccn12", "Potency": "inconclusive [cytotoxic, single point]"}, {"molecule": "CCCCCCCOc1ccc(OC(=O)c2cccnc2)cc1", "Potency": "inactive"}, {"molecule": "Cc1cc(C)cc(NS(=O)(=O)c2ccc(-c3cnc(C4CC4)o3)cc2)c1", "Potency": "active: 1.3 µM"}, {"molecule": "O=[N+]([O-])c1cccc2c(N3CCOCC3)ccnc12", "Potency": "inconclusive [cytotoxic, single point]"}, {"molecule": "O=C1CCc2ccc(OCCCCN3CCN(c4cccc(Cl)c4Cl)CC3)cc2N1", "Potency": "inactive"}, {"molecule": "COc1ccc(N2CCN(C(=O)c3ccc(CS(=O)(=O)c4ccc(OC)cc4)o3)CC2)cc1", "Potency": "inconclusive [rising, single point]"}, {"molecule": "COc1cc(/C=C2\\COC/C(=C\\c3ccc(O)c(OC)c3)C2=O)ccc1O", "Potency": "inconclusive [cytotoxic, partial curve, poor fit]"}, {"molecule": "CC(OC(=O)c1ccc(-c2ccc(O)cc2)cc1)C(=O)NC1CCCCC1C", "note": "(configuration not stated)", "Potency": "inactive"}, {"molecule": "O=C(Cn1cnc2c(OCc3ccccc3)ncnc21)NCc1ccccc1", "Potency": "inconclusive [cytotoxic, single point]"}, {"molecule": "OC(CN1CCN(Cc2ccccc2)CC1)Cn1c2ccccc2c2ccccc21", "note": "(configuration not stated)", "Potency": "inconclusive [cytotoxic, single point]"}, {"molecule": "Cc1cccc(NC(=S)N(CCCN2CCOCC2)Cc2cn(C)c3ccccc23)c1", "Potency": "inactive"}, {"molecule": "O=C(Nc1nnc(CSCc2ccc(Cl)cc2)s1)c1cccc([N+](=O)[O-])c1", "Potency": "inactive"}, {"molecule": "CC(C)Oc1ccc(CN=C(N)N=C(N)N)cc1Cl", "Potency": "inconclusive [cytotoxic, partial curve]"}, {"molecule": "Cc1ccc(Oc2ccccc2/C=C2\\SC(=O)N(C)C2=O)cc1", "Potency": "inactive"}, {"molecule": "O=C1NC(=O)C(=CC=Cc2ccccc2)S1", "Potency": "inconclusive [cytotoxic, single point]"}, {"molecule": "CC1(C)COC(c2ccc(F)c([N+](=O)[O-])c2)=N1", "Potency": "inconclusive [cytotoxic, single point]"}, {"molecule": "Cc1ccc(S(=O)(=O)N(C(=O)c2ccncc2)c2ccc3oc4c(c3c2)CCCC4)cc1[N+](=O)[O-]", "Potency": "inactive"}, {"molecule": "O=S(=O)(NC(=S)c1ccccc1)c1ccccc1", "Potency": "inconclusive [rising, single point]"}, {"molecule": "Cc1ccc(C2c3c(oc4cc(C)c(C)cc4c3=O)C(=O)N2CCCN2CCOCC2)cc1", "note": "(configuration not stated)", "Potency": "inactive"}, {"molecule": "COc1ccc2oc(=O)c(-c3csc(Nc4cccc(O)c4)n3)cc2c1", "Potency": "inconclusive [cytotoxic, single point]"}, {"molecule": "COc1cc(C2C(C#N)=C(N)N(Nc3ccccc3)C3=C2C(=O)CC(C)(C)C3)ccc1OCc1cccc(F)c1", "note": "(configuration not stated)", "Potency": "inconclusive [cytotoxic, single point]"}, {"molecule": "CC(C)n1nccc1NC(=O)COC(=O)c1ccc(NC(N)=O)cc1", "Potency": "inactive"}, {"molecule": "CN(C)S(=O)(=O)c1ccc2c(c1)Cc1cc(S(=O)(=O)N(C)C)ccc1-2", "activity, negative = less viability": "inconclusive: -3.95% [cytotoxic]"}, {"molecule": "C=CCNc1nc2ccccc2nc1NS(=O)(=O)c1ccc(OC)cc1", "Potency": "inactive"}, {"molecule": "COc1ccc(Cc2c(C3CCCCC3)nc3c(Cl)cc(C(F)(F)F)cn23)c(C)c1", "Potency": "inconclusive [cytotoxic, single point]"}, {"molecule": "Cc1ccc(C)c(-c2nnc(NC(=O)C3=COCCO3)o2)c1", "Potency": "inactive"}, {"molecule": "CSc1cc(N2CCOCC2)nc(-c2ccccc2Cl)n1", "activity, negative = less viability": "inconclusive: -20.2%"}, {"molecule": "OC1c2cc(Cl)ccc2-c2c(Cl)cc(Cl)cc21", "note": "(configuration not stated)", "Potency": "inconclusive [cytotoxic, single point]"}, {"molecule": "COC(=O)Nc1nc(-c2ccccc2)c(C(=O)c2ccc(Cl)cc2)s1", "Potency": "inconclusive [cytotoxic, full curve]"}, {"molecule": "CCCN(C(=O)COC(=O)CCOc1ccc(C)cc1)c1c(N)n(Cc2ccccc2)c(=O)[nH]c1=O", "Potency": "inconclusive [cytotoxic, single point]"}, {"molecule": "Nc1c(C(=O)NCc2ccc(F)cc2)c2nc3ccccc3nc2n1CCCN1CCOCC1", "Potency": "inconclusive [cytotoxic, single point]"}, {"molecule": "CCCCn1c(=O)nc2n(-c3ccccc3C)c3ccccc3cc-2c1=O", "Potency": "inactive"}, {"molecule": "Cc1ccc(-c2[nH]nc(N)c2N=Nc2ccccc2C)cc1", "Potency": "inconclusive [cytotoxic, single point]"}, {"molecule": "O=C(CSc1nc2ccc(NC(=O)c3ccccc3C(=O)O)cc2s1)Nc1ccc(F)c([N+](=O)[O-])c1", "activity, negative = less viability": "inconclusive: -30.7% [cytotoxic]"}, {"molecule": "CCc1nc2ccc(C(=O)N(C)CC(=O)Nc3ccccc3C(F)(F)F)cc2nc1CC", "activity, negative = less viability": "inconclusive: 1.93% [cytotoxic]"}, {"molecule": "CCCCN1CNC(=S)N(c2cc(C)ccc2C)C1", "Potency": "inconclusive [cytotoxic, single point]"}, {"molecule": "CC(C)OC(=O)N(C)c1ccc(C(O)(C(F)(F)F)C(F)(F)F)cc1", "Potency": "inconclusive [cytotoxic, single point]"}, {"molecule": "COc1ccc(-c2ccc(CCC(=O)O)o2)cc1", "Potency": "inconclusive [cytotoxic, single point]"}, {"molecule": "CCOC(=O)C1(CCOc2ccccc2)CCN(Cc2ccc(O)c(OCC)c2)CC1", "Potency": "inconclusive [cytotoxic, single point]"}, {"molecule": "O=C(NCc1ccccc1)C1=C[C@H](C2CCCCC2)C[C@H](OCc2ccc(CO)cc2)O1", "Potency": "inconclusive [cytotoxic, single point]"}, {"molecule": "COc1ccc(CNc2ncnc3c2[nH]c2ccccc23)cc1", "Potency": "active: 16.4 µM"}, {"molecule": "Cc1ccc(/C(O)=C/C(=O)C(=O)NNC(=O)C(O)(c2ccccc2)c2ccccc2)cc1", "Potency": "inconclusive [cytotoxic, single point]"}, {"molecule": "CC1=NC(=O)C(N=Nc2ccccc2)N1c1ccccc1", "note": "(configuration not stated)", "Potency": "inactive"}, {"molecule": "O=C(NC1CCCCCC1)c1ccc(S(=O)(=O)NCc2ccco2)cc1", "activity, negative = less viability": "inconclusive: -30.8% [cytotoxic]"}, {"molecule": "Cc1ccc(/C=[N+](\\[O-])c2ccc(N(C)C)cc2)c2nsnc12", "Potency": "active: 20.6 µM"}, {"molecule": "COc1cc(CN2CCC(C(=O)NCC(C)(C)CN(C)C)CC2)ccc1OCc1ccccc1", "Potency": "inconclusive [cytotoxic, single point]"}, {"molecule": "Cc1ccc(-n2ncc3c(N4CCC5(CC4)OCCO5)ncnc32)c(C)c1", "Potency": "inconclusive [cytotoxic, partial curve, poor fit]"}, {"molecule": "CN(C)CCCn1c(SCC(=O)N2c3ccccc3Sc3ccccc32)nc2ccccc2c1=O", "Potency": "active: 18.4 µM"}, {"molecule": "CN(C)CC1CC/C(=C\\c2ccc(O)cc2)C1=O", "note": "(configuration not stated)", "Potency": "inconclusive [cytotoxic, single point]"}, {"molecule": "CC(c1ccccc1)n1c(-c2ccc(C(C)(C)C)cc2)n[nH]c1=S", "note": "(configuration not stated)", "Potency": "inconclusive [cytotoxic, single point]"}, {"molecule": "CCc1nc2c(OCc3cccc(OC)c3)cccn2c1N(C)C(=O)C(C)C", "activity, negative = less viability": "inconclusive: 12.8%"}, {"molecule": "C(=C\\c1ccccc1)/CN1CCN(C(c2cccs2)c2nnnn2C2CCCC2)CC1", "note": "(configuration not stated)", "Potency": "inconclusive [cytotoxic, single point]"}, {"molecule": "COc1cc2ncc(S(=O)(=O)c3ccccc3)c(N3CCCC(C)C3)c2cc1OC", "note": "(configuration not stated)", "Potency": "inactive"}, {"molecule": "O=C1c2cccc3cc([N+](=O)[O-])cc(c23)C(=O)N1CCN1CCCC1", "Potency": "inconclusive [cytotoxic, full curve, poor fit]"}, {"molecule": "C/C(=N\\Nc1ccc(Cl)cc1)c1c(O)cc(C)oc1=O", "Potency": "inconclusive [cytotoxic, partial curve]"}, {"molecule": "CC(NC(=O)CN(C)S(=O)(=O)c1ccc(Br)s1)c1ccccc1", "note": "(configuration not stated)", "Potency": "inactive"}, {"molecule": "CCOc1cc(NCc2ccccc2)c2ncn(C(C)C)c2c1", "Potency": "inactive"}, {"molecule": "COc1ccc(N2CCN(C(=O)c3ccc4nc(N5CCCCC5)sc4c3)CC2)cc1", "Potency": "inactive"}, {"molecule": "CCCc1c(-c2cccc(Br)c2)ncn1Cc1cccc(-c2ccccc2)c1", "Potency": "inconclusive [cytotoxic, single point]"}]}]}
